Inhibition data for 23 compounds are collected here from ChEMBL document CHEMBL5606460, “ASAP - DENV-2 NS2B-NS3 protease fluorescence single point” (2024).

In this assay the target is Genome polyprotein (dengue virus type 2) (UniProt P29990).
Setting [1] is: Thailand/16681/1984, Concentration 25.0 uM, Number of replicates 1.0.

The structures appear in SMILES notation. The campaign covered roughly 2,000 compounds. About 110 (5.5%) showed an effect of 50% or more. This is one part of the list.

Usually inhibition stands for the relative decrease from the control value, in per cent. Consider `Cn1cc(NC(=O)c2ccccc2C(F)(F)F)c(-c2cnc3cn(C)nc3c2)n1`, for which the inhibition by setting is: (Thailand/16681/1984, Concentration 49.5 uM, Number of replicates 2.0, Standard deviation 6.457702028088129 %) -3.02%; (Thailand/16681/1984, Concentration 99.01 uM, Number of replicates 2.0, Standard deviation 5.49571101622526 %) -3.85%; (Thailand/16681/1984, Concentration 198.0 uM, Number of replicates 2.0, Standard deviation 4.391739589145666 %) -2.36%.

As for `O=C(O)c1cccc(NC(=O)c2cccc(OCc3c(Cl)cccc3Cl)c2)c1`, the inhibition runs as follows: (Thailand/16681/1984, Concentration 49.5 uM, Number of replicates 2.0, Standard deviation 0.517131041635451 %) 14.9%; (Thailand/16681/1984, Concentration 99.01 uM, Number of replicates 2.0, Standard deviation 0.3657402361338958 %) 47.1%; (Thailand/16681/1984, Concentration 198.0 uM, Number of replicates 2.0, Standard deviation 0.23203020217005468 %) 92.1%.

On to `Cc1nnccc1Cn1ncc(C2CCNCC2)c1C`, for which the inhibition is, setting by setting: (Thailand/16681/1984, Concentration 49.5 uM, Number of replicates 2.0, Standard deviation 1.6182116637908872 %) -1.57%; (Thailand/16681/1984, Concentration 99.01 uM, Number of replicates 2.0, Standard deviation 1.1987345119069654 %) -1.86%; (Thailand/16681/1984, Concentration 198.0 uM, Number of replicates 2.0, Standard deviation 1.646461073694072 %) -2.12%.

For `Cc1cc(CO)c2cccc(Cc3ccccc3C(=O)NCC3CCOCC3)c2n1`, the inhibition runs as follows: (Thailand/16681/1984, Concentration 49.95 uM, Number of replicates 2.0, Standard deviation 0.20194122984333937 %) -2.05%; (Thailand/16681/1984, Concentration 99.9 uM, Number of replicates 2.0, Standard deviation 0.1983479581266946 %) -1.04%.

As to `Cc1cc(CO)c2cccc(C[C@H](NC(=O)CNC3CC3)C(=O)O)c2n1`, the inhibition by setting is: (Thailand/16681/1984, Concentration 49.95 uM, Number of replicates 2.0, Standard deviation 1.120825978140881 %) 2.76%; (Thailand/16681/1984, Concentration 99.9 uM, Number of replicates 2.0, Standard deviation 4.280623426997303 %) 7.25%.

For `COc1ccc(OC)c(CN2CCN(C(=O)C3CCN(c4ccc(C=O)cc4)CC3)CC2)c1`, the inhibition under setting [1] stood at 13.6%.

`COc1ccc(CCCNC(=O)C2CCN(c3ccc(C=O)cc3)CC2)cc1`: the inhibition under setting [1] worked out at 10.5%.

In the case of `N#Cc1cnn(-c2ccccn2)c1NC(=O)C1CCN(c2ccc(C=O)cc2)CC1`, under setting [1], the inhibition turned out to be 11.8%.

In the case of `O=C(c1cc(Cl)ccc1NS(=O)(=O)c1ccc(Oc2ccccc2Cl)cc1)N1CCC[C@H](O)C1`, the inhibition runs as follows: (Thailand/16681/1984, Concentration 49.5 uM, Number of replicates 2.0, Standard deviation 1.2236693461292836 %) 22.2%; (Thailand/16681/1984, Concentration 99.01 uM, Number of replicates 2.0, Standard deviation 0.043163767671764885 %) 86.9%; (Thailand/16681/1984, Concentration 198.0 uM, Number of replicates 2.0, Standard deviation 0.0596286869236367 %) 96.8%.

On to `CS(=O)(=O)C1(CN2CC[C@H](c3c[nH]c4ccccc34)C2)CC1`, for which the inhibition is -1.85% (Thailand/16681/1984, Concentration 49.5 uM, Number of replicates 2.0, Standard deviation 3.3698314636697324 %); -0.556% (Thailand/16681/1984, Concentration 99.01 uM, Number of replicates 2.0, Standard deviation 2.803901957891398 %); 2.95% (Thailand/16681/1984, Concentration 198.0 uM, Number of replicates 2.0, Standard deviation 2.4749285250559807 %).

For `CC(C)(C)N(Cc1ccccc1)C(=O)C1CCN(c2ccc(C=O)cc2)CC1`, under setting [1], the inhibition came to 13.3%.

With `CCOC(=O)c1coc(Cn2cc(C3CCNCC3)c(C)n2)n1`, the inhibition reads like this: (Thailand/16681/1984, Concentration 49.5 uM, Number of replicates 2.0, Standard deviation 0.6058500102369131 %) -0.283%; (Thailand/16681/1984, Concentration 99.01 uM, Number of replicates 2.0, Standard deviation 1.6851083007857124 %) -0.009%; (Thailand/16681/1984, Concentration 198.0 uM, Number of replicates 2.0, Standard deviation 0.1399560493991858 %) 0.367%.

For the compound `O=Cc1ccc(N2CCC(C(=O)N[C@@H](CCO)c3ccccc3F)CC2)cc1`, the inhibition under setting [1] is 11.4%.

Regarding `Cn1cc(CNC(=O)c2ccccc2-c2cccnc2)cn1`, the inhibition was -0.458% (Thailand/16681/1984, Concentration 49.5 uM, Number of replicates 2.0, Standard deviation 1.1096991679871562 %); -0.795% (Thailand/16681/1984, Concentration 99.01 uM, Number of replicates 2.0, Standard deviation 1.523820403729435 %); -1.6% (Thailand/16681/1984, Concentration 198.0 uM, Number of replicates 2.0, Standard deviation 0.8526943871166377 %).

On to `Cn1oc(C(=O)Nc2cc(Cl)cc(C(=O)NC(C)(C)CO)c2)cc1=O`, for which the inhibition is -0.341% (Thailand/16681/1984, Concentration 49.5 uM, Number of replicates 2.0, Standard deviation 0.8141956117621647 %); 0.297% (Thailand/16681/1984, Concentration 99.01 uM, Number of replicates 2.0, Standard deviation 1.5201786631370027 %); 1.39% (Thailand/16681/1984, Concentration 198.0 uM, Number of replicates 2.0, Standard deviation 2.6564108106217375 %).

For the compound `[N-]=[N+]=NCCOCCOCCOCCNC(=O)C1CCN(c2ccc(C=O)cc2)CC1`, the inhibition under setting [1] stood at 12.9%.

For `O=Cc1ccc(N2CCC(C(=O)N3CCC(O)(c4ccc(Cl)cc4)CC3)CC2)cc1`, the inhibition under setting [1] came out at 12.1%.

For the compound `Cc1nc(C(=O)N2CCC(n3cc(CN)nn3)CC2)c(Cc2ccccc2)s1`, the inhibition reads like this: (Thailand/16681/1984, Concentration 49.5 uM, Number of replicates 2.0, Standard deviation 0.5458000023421373 %) -4.63%; (Thailand/16681/1984, Concentration 99.01 uM, Number of replicates 2.0, Standard deviation 0.5815115328475999 %) -4.92%; (Thailand/16681/1984, Concentration 198.0 uM, Number of replicates 2.0, Standard deviation 0.6177557995182402 %) -4.78%.

As for `CCn1ccnc(NCC(=O)c2c[nH]c3ccccc23)c1=O`, the inhibition was -2.1% (Thailand/16681/1984, Concentration 49.5 uM, Number of replicates 2.0, Standard deviation 3.110943672243224 %); -2.61% (Thailand/16681/1984, Concentration 99.01 uM, Number of replicates 2.0, Standard deviation 3.207728615150648 %); -0.397% (Thailand/16681/1984, Concentration 198.0 uM, Number of replicates 2.0, Standard deviation 4.205614512115071 %).

As for `Cc1nc(C2CCN(C(=O)c3ccn([C@H]4CCCNC4)n3)CC2)n[nH]1`, the inhibition (Thailand/16681/1984, Concentration 49.5 uM, Number of replicates 2.0, Standard deviation 0.8219326667939915 %) was -4.42%; the inhibition (Thailand/16681/1984, Concentration 99.01 uM, Number of replicates 2.0, Standard deviation 0.15240671313806178 %) is -3.84%; the inhibition (Thailand/16681/1984, Concentration 198.0 uM, Number of replicates 2.0, Standard deviation 2.223365450237249 %) was -4.59%.

With `Nc1cccc2c(Cl)ccnc12`, the inhibition stood at 25.3% (Thailand/16681/1984, Concentration 49.95 uM, Number of replicates 2.0, Standard deviation 9.3539447807875 %) and 68.2% (Thailand/16681/1984, Concentration 99.9 uM, Number of replicates 2.0, Standard deviation 4.02175613474424 %).

Consider `O=Cc1ccc(N2CCC(C(=O)N3CCC[C@H](c4ccccc4)C3)CC2)cc1`, for which, under setting [1], the inhibition turned out to be 14.1%.

As for `O=Cc1ccc(N2CCC(C(=O)N[C@H]3C[C@@H]3c3ccc(F)c(F)c3)CC2)cc1`, under setting [1], the inhibition was determined as 12.2%.
